Numbering of substitutions follows the chain as printed. Recombinant human monoclonal antibodies (heavy:light variable regions). ELISA EC50 on the named antigen, from 10 µg/ml down; IC50 / IC90 against spike pseudovirus on 293T-ACE2 cells, 48 h; lower = stronger. Calls: IC50 above 1,000 ng/ml = non-neutralizing; EC50 above 2,000 ng/ml = non-binder. The source prints 1000 for neutralization that was not reached; it is given as >1000 ng/ml. A few antibodies were first reported in earlier work of the same group. A value given as a limit tells only on which side of the number the result lay.

The labels stand for the following.
B1: C2118 (protein)
chain 1: VQLVESGGGVVQPGRSLRLSCAASGFTFSSYGMHWVRQAPGKGLEWVAVISYDGSNKYYADSVKGRFTISRDNSKNTLYLQMNSLRAEDTAVYYCAKGGPFGYSFPLKYFDYWGQGTLVTVSS
chain 2: IRMTQSPSSLSASVGDRVTITCQASQDISNYLNWYQQKPGKAPKLLIYDASNLETGVPSRFSGSGSGTDFTFTISSLQPEDIATYYCQQYDNLPSFTFGPGTKVDIK
B2: C2059 (protein)
chain 1: VQLVESGGGVVQPGRSLRLSCAASGFTFSSYGMHWVRQAPGKGLEWVAVISYDGSNKYYADSVKGRFTISRDNSKNTLYLQMNSLRAEDTAVYYCAKVGYSYGYSYNYFDYWGQGTLVTVSS
chain 2: B1 chain 2 with S95P, F96Y, P100Q, V104L, D105E
B3: C2141 (protein)
chain 1: VQLVESGGGVVQPGRSLRLSCAASGFTFSSYGMHWVRQAPGKGLEWVAVISYDGSNKYYADSVKGRFTISRDNSKNTLYLQMNSLRAEDTAVYYCAKNLGIYCSGGSCYSGSFDYWGQGTLVTVSS
chain 2: IRMTQSPSSLSASVGDRVTITCQASQDISNYLNWYQQKPGKAPKLLIYDASNLETGVPSRFSGSGSGTDFTFTISSLQPEDIARYYCQQYDNFALTFGGGTKVEIK
B4: C2062 (protein)
chain 1: VQLVESGGGVVQPGRSLRLSCAASGFTFSSYGMHWVRQAPGKGLEWVAVILYDGSNKYYADSVKGRFTISRDNSKNTLYLQMNSLRADDTAVYYCAKAGLYGDYVRFGYWGQGTLVTVSS
chain 2: B3 chain 2 with P39A, A42V, D69H, R84T, D91N, F93L, A94P
B5: C2123 (protein)
chain 1: QVQLVQSGAEVKKPGASVKVSCKASGYTFTNYAMHWVRQAPGQRLEWMGWINAGNGNTKYSRKFQGRVTITRDTSASTAYMDLSSLRSEDTAVYYCAREPPSHSSGYYNESGGAFDIWGQGTMVTVSS
chain 2: SYELTQPPSVSVSPGQTARITCSGDALPKKYAYWYQQKSGQAPVLVIYGDSKRPSGIPERFSGSSSGTMATLTISGAQVEDEADYYCYSTDSSEGVFGGGTKLTVL
B6: C2067 (protein)
chain 1: B5 chain 1 with K13M, N31F, A33S, W50C, R62Q, I70F, D82E, S84T, N109Y, E110G
chain 2: B5 chain 2 with G49A
B7: C2119 (protein)
chain 1: EVQLVESGGGLIQPGGSLRLSCVASGLTVSSNYMSWVRQAPGKGLEWVSVIYSGGSTYYADSVKGRFTISRDNSKNTLYFQMNSLRAEDTAVYYCARDLLAYGMDVWGQGTTVTVSS
chain 2: QSVLTQPPSASGTPGQRVTISCSGSSSNIGSNYVYWYQQLPGTAPKLLIYRNNQRPSGVPDRFSGSKSGTSASLAISGVRSEDEADYYCAAWDDSLSGPLWVFGGGTKLTVL
B8: C2121 (protein)
chain 1: EVQLLESGGGLVQPGGSLRLSCAASGFTFSSYAMSWVRQAPGKGLEWVSAISFSGGSTYYADSVKGRFTISRDNSKNTLYLQMNSLRAADTAVYYCAKDLGYCSGGSCFSGSPGWGQGTLVTVSS
chain 2: NFMLTQPHSVSESPGKTVTISCTGSSGSIASNYVQWYQQRPGSAPTTVIYEDNQRPSGVPDRFSGSIDSSSNSASLTISGLKTEDEADYYCQSYDSSNHVVFGGGTKLTVL
B9: C2175 (protein)
chain 1: QVQLVQSGAEVKKPGASVKVSCKASGYTFTSYYMHWVRQAPGQGLEWMGIINPSGGSTSYAQKFQGRVTMTRDTSTSTVYMELSSLRSEDTAVYYCARVEPPITQEMATILPYFDYWGQGTLVTVSS
chain 2: QSVLTQPPSVSGAPGQRVTISCTGSSSNIGAGYDVHWYQQLPGTAPKLLIYGNSNRPSGVPDRFSGSKSGTSASLAITGLQAEDEADYYCQSYDSSLSDNWVFGGGTKLTVL
B10: C2139 (protein)
chain 1: EVQLVETGGGLIQPGGSLRLSCVASEFIVSSNYMSWVRQAPGKGLEWVSIIYSGGSTFYADSVKGRFTISRDNSKNTLYLQMNSLRAEDTAVYYCARVLPMNWYYFDYWGQGALVTVSS
chain 2: B9 chain 2 with G52A, D99G, N100S, W101R
B11: C2176 (protein)
chain 1: EVQLVESGGGLVQPGGSLRLSCAASGFTFSNYDMHWVRQASGKGLEWVSVIGTAGDTYYPGSVKGRFTISRENAKNSLYLQMNSLRAGDTAVYYCARANYFDSSGYGYYYYGMDVWGQGTTVTVSS
chain 2: EIVMTQSPATLSVSPGERATLSCRASQSVSRNLAWYQQKPGQAPRLLIYGASTRATGIPARFSGSGSGTEFTLTISSLQSEDFAVYYCQQYYNWPPLTFGGGTKVEIK
B12: C2124 (protein)
chain 1: EVQLVESGGGLVQPGGSLRLSCAASGFTFSSYWMHWVRQAPGKGLVWVSRINSDGSSTTYADSVKGRFTISRDNAKNTLYLQMNSLRAEDTAVYYCARVGGTIVGDADYFDYWGQGTLVTVSS
chain 2: SYELTQPPSVSVAPGKTARITCGGNNIGSKSVHWYQQKPGQAPVLVVYDDSDRPSGIPERFSGSNSGNTATLTISRVEAGDEADYYCQVWDSSSDPWVFGGGTKLTVL
B13: C2188 (protein)
chain 1: EVQLVESGGGLIQPGGSLRLSCAASGITVSSNYMSWVRQAPGKGLEWVSVMYAGGSTFYADSVKGRFTISRDDSKNTLFLQMNSLRAEDTAIYYCARDLYSSGGTDIWGQGTMVTVSS
chain 2: QSVLTQPPSVSGAPGQRVTISCTGSSSNIGAGYDVHWYQQLPGTAPKLLIYGNSNRPSGVPDRFSGSKSGTSASLAITGLQAEDEADYYCQSYDSSLSGSVFGGGTKLTVL
B14: C2178 (protein)
chain 1: EVQLVESGGGLIQPGGSLRLSCAASGFTVSRNYMTWVRQAPGKGLEWVSVIYSGGSTYYADSVKGRFTISRDNSKNTLYLQMNSLRAEDTALYYCARDLGPSGGIDYWGQGTLVTVSS
chain 2: QSVLTQPPSASGTPGQRVTISCSGSSSNIGSDYVYWYQQLPGTAPKLLIYRNNQRPSGVPDRFSGSKSGTSASLAISGLRSEDEADYYCAAWDDSLWVFGGGTKLTVL
B15: C2117 (protein)
chain 1: EVQLVESGGGVVQPGGSLRLSCAASGFTFDDYAIHWVRQAPGKGLEWVSLISGDGGSTYYADSVKGRFTISRDNSKNSLYLQMNSLRTEDTALYYCAKPGDDFWSGYFKGGVDYWGQGTLVTVSS
chain 2: QSVLTQPPSASGTPGQRVTISCSGSSSNIGSNYVYWYQQLPGTAPKLLIYRNNQRPSGVPDRFSGSKSGTSASLAISGLRSEDEADYYCAAWDDSLSAWVFGGGTKLTVL
B16: C2218 (protein)
chain 1: QLQLQESGPGLVKPSETLSLTCTVSGASISSATYYWGWIRQPPGKGLEWIGNIFYSGTTYYNPSLKSRVTMSVDTSKNQFSLKLSSVTAADTALYYCARHVRYMIDNAFDIWGQGTMVTVSS
chain 2: QAVVTQPASVSGSPGQSITISCTGTSSDVGSYNLVSWYQQHPGKAPKLMIYEGSKRPSGVSNRFSGSKSGNTASLTISGLQAEDEADYYCCSYAGSSTYVFGTGTKVTVL

The target of the first assay is SARS-CoV-2 Wuhan-Hu-1 spike pseudovirus. Nature of the assay: pseudovirus neutralization IC50; higher = weaker neutralization. As to the method:
(§1)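 Single-round luciferase reporter pseudovirus mixed with antibody dilutions and put on 293T-ACE2 cells for 48 h; signal relative to no-antibody wells, four-parameter fit.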
As for B1, the “pseudovirus neutralization IC50” value is over 1 µg/mL.

Turning to B2, the “pseudovirus neutralization IC50” value is over 1 µg/mL.

With B3, the “pseudovirus neutralization IC50” value is over 1 µg/mL.

With B4, the “pseudovirus neutralization IC50” value was over 1 µg/mL.

With B5, the “pseudovirus neutralization IC50” value was determined as 0.0395 µg/mL.

B6: the “pseudovirus neutralization IC50” value was over 1 µg/mL.

As for B7, the “pseudovirus neutralization IC50” value was determined as 0.0844 µg/mL.

In the case of B8, the “pseudovirus neutralization IC50” value was over 1 µg/mL.

As for B9, the “pseudovirus neutralization IC50” value stood at 0.0269 µg/mL.

On to B10, for which the “pseudovirus neutralization IC50” value is 0.0201 µg/mL.

B11: the “pseudovirus neutralization IC50” value was over 1 µg/mL.

Turning to B12, the “pseudovirus neutralization IC50” value is over 1 µg/mL.

Regarding B13, the “pseudovirus neutralization IC50” value was 0.153 µg/mL.

On to B14, for which the “pseudovirus neutralization IC50” value came out at 0.0148 µg/mL.

Regarding B15, the “pseudovirus neutralization IC50” value was over 1 µg/mL.

Regarding B16, the “pseudovirus neutralization IC50” value is over 1 µg/mL.

The next assay has the same target. Nature of the assay: pseudovirus neutralization IC90; higher = weaker neutralization. As to the method:
as §1
Regarding B1, the “pseudovirus neutralization IC90” value was over 1 µg/mL.

Turning to B2, the “pseudovirus neutralization IC90” value is over 1 µg/mL.

On to B3, for which the “pseudovirus neutralization IC90” value is over 1 µg/mL.

Consider B4, for which the “pseudovirus neutralization IC90” value is over 1 µg/mL.

Take B5: the “pseudovirus neutralization IC90” value was determined as 0.531 µg/mL.

As for B6, the “pseudovirus neutralization IC90” value was over 1 µg/mL.

On to B7, for which the “pseudovirus neutralization IC90” value amounted to 0.28 µg/mL.

For B8, the “pseudovirus neutralization IC90” value is over 1 µg/mL.

Turning to B9, the “pseudovirus neutralization IC90” value worked out at 0.314 µg/mL.

Regarding B10, the “pseudovirus neutralization IC90” value was found to be 0.143 µg/mL.

Turning to B11, the “pseudovirus neutralization IC90” value is over 1 µg/mL.

As to B12, the “pseudovirus neutralization IC90” value is over 1 µg/mL.

As for B13, the “pseudovirus neutralization IC90” value is over 1 µg/mL.

For B14, the “pseudovirus neutralization IC90” value was 0.0685 µg/mL.

For B15, the “pseudovirus neutralization IC90” value is over 1 µg/mL.

As to B16, the “pseudovirus neutralization IC90” value was over 1 µg/mL.

The target of a further assay is SARS-CoV-2 Wuhan-Hu-1 spike receptor-binding domain. Nature of the assay: ELISA binding EC50; higher = weaker binding; ELISA of recombinant human antibody on coated antigen, from 10 µg/ml in fourfold dilutions; four-parameter fit.
Regarding B1, the “ELISA binding EC50” value came out at 0.0396 µg/mL.

As for B2, the “ELISA binding EC50” value was 0.00406 µg/mL.

Turning to B3, the “ELISA binding EC50” value came out at 0.00315 µg/mL.

In the case of B4, the “ELISA binding EC50” value is 0.0027 µg/mL.

On to B5, for which the “ELISA binding EC50” value was determined as 0.00219 µg/mL.

On to B6, for which the “ELISA binding EC50” value was 0.0242 µg/mL.

As to B7, the “ELISA binding EC50” value was found to be 0.00221 µg/mL.

Turning to B8, the “ELISA binding EC50” value was found to be 0.0173 µg/mL.

Take B9: the “ELISA binding EC50” value stood at 0.00267 µg/mL.

For B10, the “ELISA binding EC50” value was 0.00402 µg/mL.

In the case of B11, the “ELISA binding EC50” value amounted to 0.00307 µg/mL.

On to B12, for which the “ELISA binding EC50” value was 0.00185 µg/mL.

B13: the “ELISA binding EC50” value is 0.00149 µg/mL.

As for B14, the “ELISA binding EC50” value worked out at 0.0039 µg/mL.

For the molecule B15, the “ELISA binding EC50” value worked out at 0.00246 µg/mL.

As for B16, the “ELISA binding EC50” value is over 10 µg/mL.

The values above are taken from the supplement of paper PMC8674133.
